# Assay results published in the supplement of paper PMC3334620.
# Over roughly 33,000 sequences, “E-score (-0.5 to 0.5)” has its median near -0.036; the highest 2% begin near 0.37. Some of the results follow.
# Biological target: T1, Yer064c (UniProt P40041)
# T1 sequence: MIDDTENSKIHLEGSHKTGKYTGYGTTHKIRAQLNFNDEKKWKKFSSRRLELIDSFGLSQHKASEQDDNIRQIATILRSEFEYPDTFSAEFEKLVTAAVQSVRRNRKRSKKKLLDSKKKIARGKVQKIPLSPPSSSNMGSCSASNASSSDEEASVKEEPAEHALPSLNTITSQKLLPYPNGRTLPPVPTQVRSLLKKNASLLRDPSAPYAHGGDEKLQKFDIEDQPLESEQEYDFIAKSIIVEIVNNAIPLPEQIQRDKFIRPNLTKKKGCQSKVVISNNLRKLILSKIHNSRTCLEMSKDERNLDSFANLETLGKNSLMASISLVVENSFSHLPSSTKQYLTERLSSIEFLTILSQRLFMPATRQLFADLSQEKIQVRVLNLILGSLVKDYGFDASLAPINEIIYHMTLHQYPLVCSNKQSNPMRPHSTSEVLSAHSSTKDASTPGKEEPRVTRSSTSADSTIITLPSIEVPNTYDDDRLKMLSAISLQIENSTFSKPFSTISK
# Assay: PBM E-score (8-mer binding enrichment) (E-score (-0.5 to 0.5)); higher = stronger / more preferred TF binding; most listed sequences are background and not binding sites
# Settings: protein concentration: 200 nM; construct: GST-full length
# Outline: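 Full-length yeast transcription factors or their DNA-binding domains, GST-tagged and expressed with PURExpress, were applied at about 100-200 nM to universal all-10-mer Agilent arrays. These arrays had been made double-stranded by primer extension on fresh or once-stripped slides. Detection used fluorescent anti-GST, normalisation used masliner, and E-scores for ungapped eight-base words pooled with reverse complements came from the Universal PBM Analysis Suite.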
row,Sequence,PBM E-score
1,AGAGCTCC,-0.0726
2,ACAAACGG,-0.0526
3,ATACAACA,0.068
4,GTAGGCTA,-0.0445
5,ACTCACTA,0.346
6,ATCGGCAG,-0.205
7,CTTTAGCC,0.176
8,GGCCCCTA,-0.227
9,CTGTGAAC,-0.0778
10,CGTTCGTC,-0.153
11,CATCGTGA,0.0376
12,ATAGTGGA,-0.137
13,ATCAATAC,0.0498
14,GAGATGCC,-0.212
15,GACAACGA,0.0915
16,CCCTTATC,-0.0684
17,TAGGTCGA,-0.024
18,ATGAAAAA,0.123
19,AAGGACGC,-0.117
20,ACCGGTCT,-0.345
21,AGTTTCAG,-0.0733
22,ACGGCTAC,-0.0869
23,CAGTTAAG,0.0885
24,CCGGACCC,-0.278
25,ACATTCGC,-0.206

row,Sequence,PBM E-score
1,AAGAGTAG,-0.0333
2,AAGCGCGT,-0.0964
3,CGTGAAGC,-0.26
4,TGAGGAAA,-0.0935
5,ACCAACGT,-0.145
6,AAGTGGGT,-0.0192
7,ATCAGGTA,0.114
8,AGCCTAAA,0.0683
9,CCCTGTCG,-0.232
10,AAGTGGAC,-0.112
11,ATAGTGAG,0.24
12,CACATGCA,0.111
13,AAGGGGAC,-0.0495
14,ACATGCGC,-0.0108
15,AATAAATT,0.129
16,TGCTATAA,-0.248
17,ACGCGCTC,0.12
18,CACCATGG,-0.078
19,GTAATCTA,0.119
20,ATCTACAA,0.0742
21,TGAAGTAA,0.0152
22,AAAAGATC,-0.0102
23,ATCAGGAG,0.164
24,AGCGCCAC,-0.314
25,ACTTAACC,0.121

row,Sequence,PBM E-score
1,GAGCTCCC,-0.00947
2,CGGCGACC,-0.318
3,CTTATTCC,-0.121
4,AGCTTCAC,-0.265
5,TACCTGGA,0.0309
6,ATACAGAC,0.0857
7,ATAGAGAC,0.0997
8,GTAGATCA,0.0904
9,GAGATAAC,-0.0649
10,CGAGTAGC,-0.00738
11,GTAAGTAA,0.0006
12,AAGCACGT,0.034
13,CGGTCATA,-0.0954
14,GCTACTAC,-0.0666
15,ATTTGGAC,-0.0647
16,TAGCAAGA,-0.0617
17,GCAATCAA,0.134
18,ATTACCCC,0.0298
19,CCGCGACA,-0.146
20,CTAAATAA,0.128
21,TACAATGA,0.243
22,GGTGAGGA,-0.0969
23,AATCGCCC,0.186
24,AGGATCAT,0.148
25,GCGGGGTA,-0.216

row,Sequence,PBM E-score
1,AGCCCGGG,-0.144
2,GTCCTGAA,-0.07
3,ATGCGGCG,-0.174
4,AATCCAGA,-0.019
5,CAGAAGAA,-0.0728
6,CTGGACAC,-0.209
7,AACATTCT,0.111
8,AACTCGTG,0.11
9,AAACTGTT,-0.0194
10,AGCAACTG,-0.155
11,TCGGACGA,0.0731
12,ACTAAAAT,0.201
13,CTATTCCA,0.00202
14,ATAGGGAA,-0.248
15,GGCACTCA,-0.0401
16,CAGCATGC,-0.0385
17,ATGGCTCG,0.237
18,ATCCTTCC,-0.106
19,CTCACTCA,0.256
20,TGCGCGCA,-0.00849
21,CGACAAGA,0.0513
22,CACCGCTG,-0.191
23,AGAACTAC,-0.103
24,GAAGCCAA,0.035
25,ATTAATGC,-0.0148

row,Sequence,PBM E-score
1,CGCAAAGA,0.0839
2,CACAAGAG,0.0589
3,ATGGATCG,-0.068
4,GCTGCTCA,-0.125
5,ACCCGCTC,-0.32
6,GAATGCAC,-0.047
7,TAAGATTA,0.298
8,CTCGACGC,-0.0731
9,CCATCTAC,-0.0261
10,CCAGATGG,-0.0617
11,CGGAAATC,0.125
12,ACTATAGC,0.12
13,CTGTACAC,-0.228
14,ACGTTCAC,-0.237
15,CAATTACA,0.0413
16,ACCACCGC,-0.21
17,CCGGACAG,-0.136
18,CATAGAGA,0.165
19,CCCGGAAG,-0.242
20,CCCGCCTC,-0.0906
21,AATGGCAA,-0.00615
22,AGACGCTA,-0.0528
23,ATAGCGGC,-0.169
24,ATATTAGC,0.112
25,GGTAGGAC,-0.126

row,Sequence,PBM E-score
1,AGGTCACG,-0.143
2,AATGACAC,-0.0672
3,CCTAGCAC,-0.405
4,GATTGCAC,0.218
5,CGAATTGA,0.136
6,ACATATAG,0.035
7,AAGGAACT,-0.21
8,TGTGAAAA,-0.079
9,CTCCACCC,-0.099
10,GATAGATA,-0.0933
11,GATCAGGA,-0.0664
12,AAGATGGT,-0.157
13,ACAGGACT,0.272
14,ACGTAAAG,0.0517
15,CCTCTGCG,-0.125
16,AGTATTGA,0.145
17,AAACGACA,-0.098
18,ACGCGTCG,-0.0105
19,CGATTTTC,0.0242
20,CGCGTGTA,0.147
21,TCTGTACA,0.101
22,CCTAGTCC,0.0749
23,AGATCTGA,0.169
24,CTCAGCCC,-0.0848
25,AAGGCGGG,-0.156

row,Sequence,PBM E-score
1,GTCGCTCA,0.171
2,TCCATCCA,-0.0667
3,ACGATGTG,0.152
4,TCCTTCAA,0.102
5,CATTCTCC,-0.102
6,AGCTACGA,-0.0242
7,GACTAGTA,0.391
8,ACTATTTC,0.108
9,ACCCCCCG,-0.231
10,CGAAGGAC,0.079
11,ACAAGCTC,-0.275
12,CACTGTCG,-0.136
13,GGCCAGCC,-0.191
14,ATCTCCAT,-0.156
15,AATTTGAG,0.158
16,GGACTGAC,0.226
17,AATCAGAA,0.3
18,TTTGAAAA,0.127
19,ATTTATTA,-0.0394
20,TGGACAAA,-0.146
21,CCACTGAC,0.0888
22,GATATCAC,-0.114
